From the supplement of paper PMC11125491 come the findings set out here.

± gives the standard deviation of the averaged measurements. Growth of baker's yeast expressing single-residue variants of Pneumocystis jirovecii dihydrofolate reductase in 8.8 or 44 µM methotrexate (about 75% and 90% inhibition of the wild type). Selection coefficient per generation; 0 = like wild type, above 0 = less sensitive, below 0 = more sensitive or loss of function. No active / inactive call per row; the paper calls resistant above 0.220 (8.8 µM) or 0.243 (44 µM) together with a significance test. At 44 µM about 15% of codons end with one read or none, so the lowest values are floors (replicate rank correlation 0.74; 0.94 at 8.8 µM).

B1: UniProt A0EPZ9; numbered along this chain (parent)
chain: MDWQKSLTLIVALTLSRGIGLKNDLPWKLKSDMMFFSRVTSGLLVTRSTGQMNVVLMGRKTWESLPAHSRPLKNRINVVISRQEVLDLGGGAYHARSLDDALALLSQIYDSTSKIQLNRVFVIGGGELCKAAMEHSRLNRIIATVIHNEVDCDVFFPIDFRSSQSCLPWRKQDHSVLEAWVGSKVPQGKINENGFIYEFEMWIRDI

In the series the parent is B1. Kind of series: selection coefficient against synonymous wild-type codons (log2 per generation); higher = faster growth than wild type. Particulars: with Saccharomyces cerevisiae carrying the variant on a plasmid. On the procedure: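 Pooled growth of yeast carrying single-residue variants of P. jirovecii dihydrofolate reductase (own DFR1 gene intact), two passages at 30 °C, three cultures, sequenced before and after. Codons with under 15 starting reads are left out; codons of one change are averaged.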

In the case of MDWQKSLTLIVALTLSRGIGLKNDLPWKLKSDMMFFSRVTSGLLVTRSTGQMNVVLMGRKTWESLPAHSRPLKNRINVVISRQEVLDLGGGAYHARSLDDALALLSQIYDSTSKIQLNRVFVIGGGELCKAAMEHSRLNRIIATVIHNEVDCDVFFPIDFRSSQMCLPWRKQDHSVLEAWVGSKVPQGKINENGFIYEFEMWIRDI [S165M], the “selection coefficient against synonymous wild-type codons (log2)” value (from here on “selection coefficient … (log2)”) is, setting by setting: (methotrexate 8.8 µM) 0.00607 ± 0.029; (methotrexate 44 µM) 0.081 ± 0.043.
For the variant MDWQKSLTLIVALTLSRGIGLKNDLPWKLKSDMMFFSRVTSGLLVTRSTGQMNVVLMGRKTWESLPAHSRPLKNRINVVISRQEVLDLGGGAYHARSLDDALALLSQIYDSTSKIQLNRVFVIGGGELCKAAMEHSRLNRIIATVIHNEVDCDVFFPIDFRSSQSCLPWRKQDHSVLEAWVGHKVPQGKINENGFIYEFEMWIRDI [S183H], the “selection coefficient … (log2)” value reads like this: (methotrexate 8.8 µM) -0.0523 ± 0.042; (methotrexate 44 µM) -0.16 ± 0.068.
On the same counts, the results for MDWQKSLTLIVALTLSRGIGLKNDLPWKLKSDMMFFSRVTSGLLVTRSTGQMNVVLMGRKTWESLPAHSRPLKNRINVVISRQEVLDLGGGAYHARSLDDALALLSQIYDSTSKIQLNRVFVIGGGELCKAAMEHSRLNRIIATVIHNEVDCDVFFPIDFRSSQSCLPWRKQDHSVLEAWVGRKVPQGKINENGFIYEFEMWIRDI [S183R] are -0.0166 ± 0.042 and -0.122 ± 0.18.
Regarding MDWQKSLTLIVALTLSRGIGLKNDLPWKLKSDMMFFSRVTSGLLVTRSTGKMNVVLMGRKTWESLPAHSRPLKNRINVVISRQEVLDLGGGAYHARSLDDALALLSQIYDSTSKIQLNRVFVIGGGELCKAAMEHSRLNRIIATVIHNEVDCDVFFPIDFRSSQSCLPWRKQDHSVLEAWVGSKVPQGKINENGFIYEFEMWIRDI [Q51K], the “selection coefficient … (log2)” value (methotrexate 8.8 µM) is -0.0167 ± 0.071 and the “selection coefficient … (log2)” value (methotrexate 44 µM) turned out to be 0.0418 ± 0.074.
As to MDWQKSLTLIVALTLSRGIGLKNDLPWKLKSDMMFFSRVTSGLLVTRSTGQMNVVLMGRKTWESLPAHSRPLKNRINVVISRQEVLDLGGGAYHARSLDDALALLSQIYDSTSKIQLNRVFVIGGGELCKAAMEHSRLNRIIATVIHNEVDCDVFFPIDFRSSQSCLPWRKQDHSVLLAWVGSKVPQGKINENGFIYEFEMWIRDI [E178L], the “selection coefficient … (log2)” value by setting is: (methotrexate 8.8 µM) -0.433 ± 0.054; (methotrexate 44 µM) -0.414 ± 0.1.
For MDWQKSLTLIVALTLSRGIGLKNDLPWKLKSDMMFFSRVTSGLLVTRSTGQMNVVLMGRKTWESLPAHSRPLKNRINVVISRQEVLDLGGGAYHARSLDDALALLSQIYDSTSKIQLNRVFVIGGGELCKAAMEHSRLNRIIATVIHNEVDCDVFFPIDFRSSQSCLPWRKQDHSVLTAWVGSKVPQGKINENGFIYEFEMWIRDI [E178T] the same measures were -0.161 ± 0.12 and -0.214 ± 0.15.
For MDWQKSLTLIVALTLSRGIGLKNDLPWKLKSDMMFFSRVTSGLLVTRSTGQMNVVLMGRKTWESLPAHSRPLKNRINVVISRQEVLDLGGGAYHARSLDDALALLSQIYDSTSKIQLNRVFVIGGGERCKAAMEHSRLNRIIATVIHNEVDCDVFFPIDFRSSQSCLPWRKQDHSVLEAWVGSKVPQGKINENGFIYEFEMWIRDI [L128R], the “selection coefficient … (log2)” value (methotrexate 8.8 µM) was -0.738 ± 0.074 and the “selection coefficient … (log2)” value (methotrexate 44 µM) is -0.286 ± 0.087.
On the same counts, the results for MDWQKSLTLIVALTLSRGIGLKNDLPWKLKSDMMFFSRVTSGLLVTRSTGQMNVVLMGRKTWESLPAHSRPLKNRINVVISRQEVLDLGCGAYHARSLDDALALLSQIYDSTSKIQLNRVFVIGGGELCKAAMEHSRLNRIIATVIHNEVDCDVFFPIDFRSSQSCLPWRKQDHSVLEAWVGSKVPQGKINENGFIYEFEMWIRDI [G90C] are -0.168 ± 0.059 and -0.256 ± 0.095.
Regarding MDWQKSLTLIVALTLSRGIGLKNDLPWKLKSDMMFFSRVTSGLLVTRSTGQMNVVLMGRKTWESLPAHSRPLKNRINVVISRQEVLDLGIGAYHARSLDDALALLSQIYDSTSKIQLNRVFVIGGGELCKAAMEHSRLNRIIATVIHNEVDCDVFFPIDFRSSQSCLPWRKQDHSVLEAWVGSKVPQGKINENGFIYEFEMWIRDI [G90I], the “selection coefficient … (log2)” value by setting is: (methotrexate 8.8 µM) -0.319 ± 0.071; (methotrexate 44 µM) -0.206 ± 0.16.
For MDWQKSLTLIVALTLSRGIGLKNDLPWKLKSDMMFFSRVTSGLLVTRSTGQMNVVLMGRKTWESLPAHSRPLKNRINVVISRQEVLDLGGGAYHARSLDDALASLSQIYDSTSKIQLNRVFVIGGGELCKAAMEHSRLNRIIATVIHNEVDCDVFFPIDFRSSQSCLPWRKQDHSVLEAWVGSKVPQGKINENGFIYEFEMWIRDI [L104S] the same measures were -0.397 ± 0.16 and -0.166 ± 0.13.
MDWQKSLTLIVALTLSRGIGLKNDLPWKLKSDMMFFSRVTSGLLVTRSTGQMNVVLMGRGTWESLPAHSRPLKNRINVVISRQEVLDLGGGAYHARSLDDALALLSQIYDSTSKIQLNRVFVIGGGELCKAAMEHSRLNRIIATVIHNEVDCDVFFPIDFRSSQSCLPWRKQDHSVLEAWVGSKVPQGKINENGFIYEFEMWIRDI [K60G]: the “selection coefficient … (log2)” value (methotrexate 8.8 µM) is -0.0376 ± 0.041 and the “selection coefficient … (log2)” value (methotrexate 44 µM) came to 0.0144 ± 0.018.
Regarding MDWQKSLTLIVALTLSRGIGLKNDLPWKLKSDMMFFSRVTSGLLVTRSTGQMNVVLMGRKTWESLPAHSRPLKNRINVVISRQEVLDLGGGAYHARSLDDALALLSQIYDSTSKIQLNRVFVIIGGELCKAAMEHSRLNRIIATVIHNEVDCDVFFPIDFRSSQSCLPWRKQDHSVLEAWVGSKVPQGKINENGFIYEFEMWIRDI [G124I], the “selection coefficient … (log2)” value is -0.627 ± 0.12 (methotrexate 8.8 µM) and -0.0933 ± 0.085 (methotrexate 44 µM).
Consider MDWQKSLTLIVALTLSRGIGLKNDLPWKLKSDMMFFSRVTSGLLVTRSTGQMNVVLMGRKTWESLPAHSRPLKNRINVVISRQEVLDLGGGAYHARSLDDALALLSQIYDSTSKIQLNRVFVIGGGELCKAAMEHSRLNRIIATVIFNEVDCDVFFPIDFRSSQSCLPWRKQDHSVLEAWVGSKVPQGKINENGFIYEFEMWIRDI [H147F], for which the “selection coefficient … (log2)” value is -0.267 ± 0.12 (methotrexate 8.8 µM) and -0.341 ± 0.091 (methotrexate 44 µM).
For MDWQKSLTLIVALTLSRGIGLKNDLPWKLKSDMMFFSRVTSGLLVTRSTGQMNVVLMGRKTWESLPAHSRPLKNRINVVISRQEVLDLGGGAYHARSLDDALALLSQIYDSTSKIQLNRVFVIGGGELCKLAMEHSRLNRIIATVIHNEVDCDVFFPIDFRSSQSCLPWRKQDHSVLEAWVGSKVPQGKINENGFIYEFEMWIRDI [A131L] the same measures were -0.294 ± 0.066 and -0.258 ± 0.09.
For the variant MDWQKSLTLIVALTLSRGIGLKNDLPWKLKSDMMFFSRVTSGLLVTRSTGQMNVVLMGRKTWESLPAHSRPLKNRINVVISRQEVLDLGGGAYHARSLDDALALLSQIYDSTSKIQLNRVFVIGGGELCKAAMEHSRLNRIIATVIHNEVDCDVFFPIDFRSSQSCLPWRKSDHSVLEAWVGSKVPQGKINENGFIYEFEMWIRDI [Q172S], the “selection coefficient … (log2)” value is -0.0672 ± 0.049 (methotrexate 8.8 µM) and -0.179 ± 0.13 (methotrexate 44 µM).
